The list shows a part of the results.
Legend:
Test in all cases: glycan array binding signal (z-score within array); higher = stronger binding
Details in all cases: glycan notation: IUPAC condensed, linker removed
[1] = molecular target: Neu5Ac(a2-3)Gal(b1-4)GlcNAc(b1-3)Gal(b1-4)[Fuc(a1-3)]GlcNAc
Outline: (§1)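 Arrays were curated from the Consortium for Functional Glycomics database, 3228 in total, and kept only where the protein sequence was available. Binding is expressed as a within-array Z-score. This score was averaged across arrays of the same protein sequence at different concentrations or buffers and across linkers, and negative values can be read as non-binding.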

[2] = molecular target: Neu5Ac(a2-3)Gal(b1-4)GlcNAc(b1-3)GalNAc
Outline: as §1

[3] = molecular target: Neu5Ac(a2-3)Gal(b1-4)GlcNAc(b1-3)[Neu5Ac(a2-3)Gal(b1-4)GlcNAc(b1-6)]GalNAc
Outline: as §1

[4] = molecular target: Neu5Ac(a2-3)Gal(b1-4)GlcNAc(b1-6)GalNAc
Outline: as §1

[5] = molecular target: Neu5Ac(a2-3)Gal(b1-4)GlcNAc(b1-6)[Gal(b1-3)]GalNAc
Outline: as §1

[6] = molecular target: Neu5Ac(a2-3)Gal(b1-4)GlcNAc(b1-6)[Neu5Ac(a2-3)Gal(b1-3)]GalNAc
Outline: as §1

[7] = molecular target: Neu5Ac(a2-3)Gal(b1-4)GlcNAc6S
Outline: as §1

[8] = molecular target: Neu5Ac(a2-3)Gal(b1-4)[Fuc(a1-3)]GlcNAc
Outline: as §1

[9] = molecular target: Neu5Ac(a2-3)Gal(b1-4)[Fuc(a1-3)]GlcNAc(b1-2)Man
Outline: as §1

[10] = molecular target: Neu5Ac(a2-3)Gal(b1-4)[Fuc(a1-3)]GlcNAc(b1-3)Gal
Outline: as §1

[11] = molecular target: Neu5Ac(a2-3)Gal(b1-4)[Fuc(a1-3)]GlcNAc(b1-3)Gal(b1-4)GlcNAc
Outline: as §1

[12] = molecular target: Neu5Ac(a2-3)Gal(b1-4)[Fuc(a1-3)]GlcNAc(b1-3)Gal(b1-4)[Fuc(a1-3)]GlcNAc(b1-3)Gal(b1-4)[Fuc(a1-3)]GlcNAc
Outline: as §1

[13] = molecular target: Neu5Ac(a2-3)Gal(b1-4)[Fuc(a1-3)]GlcNAc(b1-3)GalNAc
Outline: as §1

[14] = molecular target: Neu5Ac(a2-3)Gal(b1-4)[Fuc(a1-3)]GlcNAc(b1-6)[Gal(b1-3)]GalNAc
Outline: as §1

[15] = molecular target: Neu5Ac(a2-3)Gal(b1-4)[Fuc(a1-3)]GlcNAc(b1-6)[Neu5Ac(a2-3)Gal(b1-3)]GalNAc
Outline: as §1

[16] = molecular target: Neu5Ac(a2-3)Gal(b1-4)[Fuc(a1-3)]GlcNAc6S
Outline: as §1

[17] = molecular target: Neu5Ac(a2-3)Gal6S(b1-4)GlcNAc
Outline: as §1

[18] = molecular target: Neu5Ac(a2-3)Gal6S(b1-4)[Fuc(a1-3)]GlcNAc
Outline: as §1

Neu5Ac(a2-3)GalNAc = molecular target: Neu5Ac(a2-3)GalNAc
Outline: as §1

[19] = molecular target: Neu5Ac(a2-3)GalNAc(b1-4)GlcNAc
Outline: as §1

[20] = molecular target: Neu5Ac(a2-3)[GalNAc(b1-4)]Gal(b1-4)Glc
Outline: as §1

[21] = molecular target: Neu5Ac(a2-3)[GalNAc(b1-4)]Gal(b1-4)GlcNAc
Outline: as §1

[22] = molecular target: Neu5Ac(a2-3)[GalNAc(b1-4)]Gal(b1-4)GlcNAc(b1-3)GalNAc
Outline: as §1

[23] = molecular target: Neu5Ac(a2-3)[Neu5Ac(a2-6)]GalNAc
Outline: as §1

Neu5Ac(a2-6)Gal = molecular target: Neu5Ac(a2-6)Gal
Outline: as §1

[24] = molecular target: Neu5Ac(a2-6)Gal(b1-3)GlcNAc(b1-3)[Gal(b1-4)GlcNAc(b1-6)]Gal(b1-4)Glc
Outline: as §1

Neu5Ac(a2-6)Gal(b1-4)Glc = molecular target: Neu5Ac(a2-6)Gal(b1-4)Glc
Outline: as §1

[25] = molecular target: Neu5Ac(a2-6)Gal(b1-4)GlcNAc
Outline: as §1

[26] = molecular target: Neu5Ac(a2-6)Gal(b1-4)GlcNAc(b1-2)Man
Outline: as §1

[27] = molecular target: Neu5Ac(a2-6)Gal(b1-4)GlcNAc(b1-2)Man(a1-3)Man(b1-4)GlcNAc(b1-4)GlcNAc
Outline: as §1

[28] = molecular target: Neu5Ac(a2-6)Gal(b1-4)GlcNAc(b1-2)Man(a1-3)[Gal(b1-4)GlcNAc(b1-2)Man(a1-6)]Man(b1-4)GlcNAc(b1-4)GlcNAc
Outline: as §1

[29] = molecular target: Neu5Ac(a2-6)Gal(b1-4)GlcNAc(b1-2)Man(a1-3)[GlcNAc(b1-2)Man(a1-6)]Man(b1-4)GlcNAc(b1-4)GlcNAc
Outline: as §1

[30] = molecular target: Neu5Ac(a2-6)Gal(b1-4)GlcNAc(b1-2)Man(a1-3)[GlcNAc(b1-2)Man(b1-4)GlcNAc(b1-2)Man(a1-6)]Man(b1-4)GlcNAc(b1-4)GlcNAc
Outline: as §1

[31] = molecular target: Neu5Ac(a2-6)Gal(b1-4)GlcNAc(b1-2)Man(a1-3)[GlcNAc(b1-4)][Neu5Ac(a2-6)Gal(b1-4)GlcNAc(b1-2)Man(a1-6)]Man(b1-4)GlcNAc(b1-4)GlcNAc
Outline: as §1

[32] = molecular target: Neu5Ac(a2-6)Gal(b1-4)GlcNAc(b1-2)Man(a1-3)[Man(a1-6)]Man(b1-4)GlcNAc(b1-4)GlcNAc
Outline: as §1

[33] = molecular target: Neu5Ac(a2-6)Gal(b1-4)GlcNAc(b1-2)Man(a1-3)[Neu5Ac(a2-3)Gal(b1-4)GlcNAc(b1-2)Man(a1-6)]Man(b1-4)GlcNAc(b1-4)GlcNAc
Outline: as §1

[34] = molecular target: Neu5Ac(a2-6)Gal(b1-4)GlcNAc(b1-2)Man(a1-3)[Neu5Ac(a2-6)Gal(b1-4)GlcNAc(b1-2)Man(a1-6)]Man(b1-4)GlcNAc(b1-4)GlcNAc
Outline: as §1

[35] = molecular target: Neu5Ac(a2-6)Gal(b1-4)GlcNAc(b1-2)Man(a1-3)[Neu5Ac(a2-6)Gal(b1-4)GlcNAc(b1-2)Man(a1-6)]Man(b1-4)GlcNAc(b1-4)[Fuc(a1-6)]GlcNAc
Outline: as §1

[36] = molecular target: Neu5Ac(a2-6)Gal(b1-4)GlcNAc(b1-2)Man(a1-6)Man(b1-4)GlcNAc(b1-4)GlcNAc
Outline: as §1

[37] = molecular target: Neu5Ac(a2-6)Gal(b1-4)GlcNAc(b1-2)Man(a1-6)[Gal(b1-4)GlcNAc(b1-2)Man(a1-3)]Man(b1-4)GlcNAc(b1-4)GlcNAc
Outline: as §1

[38] = molecular target: Neu5Ac(a2-6)Gal(b1-4)GlcNAc(b1-2)Man(a1-6)[GlcNAc(b1-2)Man(a1-3)]Man(b1-4)GlcNAc(b1-4)GlcNAc
Outline: as §1

[39] = molecular target: Neu5Ac(a2-6)Gal(b1-4)GlcNAc(b1-2)Man(a1-6)[Man(a1-3)]Man(b1-4)GlcNAc(b1-4)GlcNAc
Outline: as §1

[40] = molecular target: Neu5Ac(a2-6)Gal(b1-4)GlcNAc(b1-2)[Neu5Ac(a2-6)Gal(b1-4)GlcNAc(b1-4)]Man(a1-3)[GlcNAc(b1-4)][Neu5Ac(a2-6)Gal(b1-4)GlcNAc(b1-2)[Neu5Ac(a2-6)Gal(b1-4)GlcNAc(b1-6)]Man(a1-6)]Man(b1-4)GlcNAc(b1-4)GlcNAc
Outline: as §1

[41] = molecular target: Neu5Ac(a2-6)Gal(b1-4)GlcNAc(b1-2)[Neu5Ac(a2-6)Gal(b1-4)GlcNAc(b1-4)]Man(a1-3)[GlcNAc(b1-4)][Neu5Ac(a2-6)Gal(b1-4)GlcNAc(b1-4)Man(a1-6)]Man(b1-4)GlcNAc(b1-4)GlcNAc
Outline: as §1

[42] = molecular target: Neu5Ac(a2-6)Gal(b1-4)GlcNAc(b1-2)[Neu5Ac(a2-6)Gal(b1-4)GlcNAc(b1-6)]Man(a1-6)[Neu5Ac(a2-6)Gal(b1-4)GlcNAc(b1-2)Man(a1-3)][GlcNAc(b1-4)]Man(b1-4)GlcNAc(b1-4)GlcNAc
Outline: as §1

B1: AAL (Agrocybe aegerita), Q6WY08 (protein)
chain: MQGVNIYNISAGTSVDLAAPVTTGDIVTFFSSALNLNAGAGNPNNTTLNLFAENGAYLLHIAFRLQENVIIFNSRQPDGPWLVEQRVSDVANQFAGIDGKAMVTVFDHGDKYQVVINEKTVIQYTKQISGLTLSLSYNATEETSIFSTVVEAVTYTGLALEHHHHHH
glycan array binding signal (z-score) [1]: -0.131
glycan array binding signal (z-score) [2]: 0.017
glycan array binding signal (z-score) [3]: -0.15
glycan array binding signal (z-score) [4]: -0.159
glycan array binding signal (z-score) [5]: -0.141
glycan array binding signal (z-score) [6]: 0.279
glycan array binding signal (z-score) [7]: -0.117
glycan array binding signal (z-score) [8]: -0.154
glycan array binding signal (z-score) [9]: -0.147
glycan array binding signal (z-score) [10]: -0.142
glycan array binding signal (z-score) [11]: -0.145
glycan array binding signal (z-score) [12]: -0.158
glycan array binding signal (z-score) [13]: -0.108
glycan array binding signal (z-score) [14]: -0.143
glycan array binding signal (z-score) [15]: -0.087
glycan array binding signal (z-score) [16]: -0.148
glycan array binding signal (z-score) [17]: -0.156
glycan array binding signal (z-score) [18]: -0.161
glycan array binding signal (z-score) (Neu5Ac(a2-3)GalNAc): -0.143
glycan array binding signal (z-score) [19]: -0.155
glycan array binding signal (z-score) [20]: -0.153
glycan array binding signal (z-score) [21]: -0.149
glycan array binding signal (z-score) [22]: -0.153
glycan array binding signal (z-score) [23]: -0.128
glycan array binding signal (z-score) (Neu5Ac(a2-6)Gal): -0.15
glycan array binding signal (z-score) [24]: -0.151
glycan array binding signal (z-score) (Neu5Ac(a2-6)Gal(b1-4)Glc): -0.148
glycan array binding signal (z-score) [25]: -0.159
glycan array binding signal (z-score) [26]: -0.1
glycan array binding signal (z-score) [27]: -0.154
glycan array binding signal (z-score) [28]: -0.144
glycan array binding signal (z-score) [29]: -0.154
glycan array binding signal (z-score) [30]: 1.25
glycan array binding signal (z-score) [31]: -0.168
glycan array binding signal (z-score) [32]: -0.148
glycan array binding signal (z-score) [33]: -0.098
glycan array binding signal (z-score) [34]: -0.134
glycan array binding signal (z-score) [35]: -0.131
glycan array binding signal (z-score) [36]: -0.133
glycan array binding signal (z-score) [37]: -0.151
glycan array binding signal (z-score) [38]: -0.162
glycan array binding signal (z-score) [39]: -0.148
glycan array binding signal (z-score) [40]: -0.117
glycan array binding signal (z-score) [41]: -0.148
glycan array binding signal (z-score) [42]: -0.143

Reference: the supplement of paper PMC8728848
